We go through 90 compounds from paper PMC4336329 (PLoS ONE, 2015).

The structures appear in SMILES notation. Screen size: about 310,000 compounds; about 2,200 (0.71%) showed an effect of 50% or more. Effects have a minus sign here. Some of the results follow.

The experiment deals with human ether-à-go-go-related gene (hERG) potassium channel (human, UniProt Q12809). The experiment in a line: primary screen, population patch clamp on CHO cells stably expressing hERG.
human ether-à-go-go-related gene (hERG) potassium channel, sequence (Q12809 whole entry, looked up): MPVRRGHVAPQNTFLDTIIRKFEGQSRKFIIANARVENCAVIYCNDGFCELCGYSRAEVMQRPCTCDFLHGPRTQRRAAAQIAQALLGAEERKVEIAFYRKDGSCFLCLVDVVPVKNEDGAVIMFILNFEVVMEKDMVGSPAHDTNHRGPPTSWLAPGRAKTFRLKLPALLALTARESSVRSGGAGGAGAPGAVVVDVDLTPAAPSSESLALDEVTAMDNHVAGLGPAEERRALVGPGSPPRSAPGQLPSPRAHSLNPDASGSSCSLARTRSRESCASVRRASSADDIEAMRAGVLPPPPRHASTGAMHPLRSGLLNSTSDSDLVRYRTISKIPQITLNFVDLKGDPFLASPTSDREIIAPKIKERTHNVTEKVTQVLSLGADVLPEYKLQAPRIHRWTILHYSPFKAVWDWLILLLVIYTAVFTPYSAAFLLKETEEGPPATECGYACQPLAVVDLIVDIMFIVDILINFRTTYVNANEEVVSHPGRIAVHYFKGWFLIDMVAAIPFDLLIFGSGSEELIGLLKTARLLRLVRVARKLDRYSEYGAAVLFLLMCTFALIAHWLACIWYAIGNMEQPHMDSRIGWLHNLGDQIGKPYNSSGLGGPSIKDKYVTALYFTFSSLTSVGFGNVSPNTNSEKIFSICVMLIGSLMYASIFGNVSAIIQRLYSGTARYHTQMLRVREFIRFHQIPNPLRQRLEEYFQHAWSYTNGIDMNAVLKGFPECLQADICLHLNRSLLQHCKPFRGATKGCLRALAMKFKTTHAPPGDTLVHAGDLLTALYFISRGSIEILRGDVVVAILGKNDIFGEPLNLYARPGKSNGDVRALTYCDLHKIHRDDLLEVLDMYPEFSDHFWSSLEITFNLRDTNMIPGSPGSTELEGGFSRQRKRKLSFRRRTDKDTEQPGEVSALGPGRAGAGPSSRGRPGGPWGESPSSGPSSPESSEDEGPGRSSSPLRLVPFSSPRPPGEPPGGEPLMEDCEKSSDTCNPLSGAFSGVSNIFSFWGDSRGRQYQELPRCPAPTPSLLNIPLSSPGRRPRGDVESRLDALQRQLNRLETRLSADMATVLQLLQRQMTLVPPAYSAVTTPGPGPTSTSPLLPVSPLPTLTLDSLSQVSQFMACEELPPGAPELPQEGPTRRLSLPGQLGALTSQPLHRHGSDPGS
`Cc1cc(-c2nnc(SCC(=O)Nc3ccccc3C(F)(F)F)o2)c(C)n1-c1ccccc1`: the “hERG current change (%, negative = inhibition) at 1uM” value is listed as 9.78%.

For `Cc1ccc(S(=O)OCC(=O)Nc2cc(Cl)ccc2N2CCOCC2)cc1` (stereo not drawn), the “hERG current change (%, negative = inhibition) at 1uM” value stood at 6.44%. In the case of `CCOC(=O)COc1cc2c(C(=O)OCC)c(C)oc2cc1Br` it was 17.2%; in that of `COc1cc([N+](=O)[O-])ccc1NC(=O)C[n+]1cccc(C)c1.[Cl-]`, 10.6%. Under `COc1ccc(-n2ncc(C(=O)N3CCN(c4ccc(F)cc4)CC3)c2C)cc1` stands 0.0985%; under `Nc1cc(-c2nn[nH]n2)ccc1F`, 11.9%; under `COCCCNc1nc2nonc2nc1N1CCC(C(C)N2CCOCC2)CC1` (stereo not drawn), 13.4%.

`CCc1ccccc1NC1=NCC(=O)N1Cc1ccccc1`: the “hERG current change (%, negative = inhibition) at 1uM” value is 10.6%. On to `CC1CCc2c(C(=O)Nc3nccs3)csc2C1` (stereo not drawn), for which the “hERG current change (%, negative = inhibition) at 1uM” value came out at 12.8%. As for `CC(=O)C1=C(O)C(=O)N(c2nnn(C)n2)C1c1cccs1` (stereo not drawn), the “hERG current change (%, negative = inhibition) at 1uM” value worked out at 9.19%.

Take `Cc1ccc(-c2n[nH]c(=O)c3ccccc23)cc1S(=O)(=O)NC(C)(C)C`: the “hERG current change (%, negative = inhibition) at 1uM” value came to 12.7%. Under `CC(C)=C1SC(N2CCN(c3ccc(C)c(Cl)c3)CC2)=NC1=O` stands 4.74%. In the case of `CS(=O)(=O)NCc1nnc(SCc2ccc(C(F)(F)F)cc2)o1` it was 6.78%. With `COc1cccc(C(=O)OC2CCN(C)CC2)c1.Cl`, the “hERG current change (%, negative = inhibition) at 1uM” value is given as 10.3%. In the case of `Cc1ccc(NC(=O)C(C)N2CCCC2)cc1Cl.Cl` (stereo not drawn), the “hERG current change (%, negative = inhibition) at 1uM” value is given as -5.23%. In the case of `O=C(NNC(=O)c1ccccc1C(F)(F)F)c1csc(N2CCOCC2)n1` it was 16.1%. With `CCOC(=O)N1CCN(C(=O)c2ccc3nc(N4CCC(C)CC4)sc3c2)CC1`, the “hERG current change (%, negative = inhibition) at 1uM” value is 2.41%. Under `COc1ccc(/C=C(/C#N)C(=O)Nc2cccc([N+](=O)[O-])c2)cc1C(=O)O` stands 17.3%. In the case of `COc1cc(CCC(O)CC(=O)CCc2ccccc2)ccc1O` (stereo not drawn) it was -7.37%; in that of `CCOc1cc(C(=O)OCc2ccc(C(=O)OC)o2)cc(Br)c1OC`, 12.8%; in that of `Cc1ccc(SCC(=O)NC(=O)NCCC(C)C)c(C)c1`, 4.05%. Under `Cc1ccc(NC(=O)[C@@H]2CCC(=O)N2C2OC(=O)c3ccccc32)cc1Cl` (stereo partly drawn) stands -6.31%; under `CC(=O)c1noc(C)c1C(=O)Nc1nccs1`, 11.6%; under `N#CCSc1ncnc2ccccc12`, 14.4%. For the compound `COc1ccccc1NS(=O)(=O)c1cc(C)ccc1C`, the “hERG current change (%, negative = inhibition) at 1uM” value is recorded as 6.07%. In the case of `Cc1nnc(N2C(=O)C(=O)/C(=C(\O)c3ccc4c(c3)CC(C)O4)C2c2ccccc2)s1` (stereo not drawn), the “hERG current change (%, negative = inhibition) at 1uM” value worked out at 11.7%. In the case of `CCOC(=O)c1c(C)[nH]c(C)c1S(=O)(=O)NC(CC)CN1CCOCC1` (stereo not drawn) it was 14.6%; in that of `CC(=O)NC(CCS(C)(=O)=O)C(=O)Nc1ccc(F)cc1Cl` (stereo not drawn), 14.5%. Under `S=C(NCc1ccccn1)Nc1ccc(Cl)cc1Cl` stands 2.25%; under `Cc1c(C(=O)Nc2ccc(Cc3ccncc3)cc2)cccc1[N+](=O)[O-]`, 8.65%; under `O=C(CCNC(=O)C1CCN(S(=O)(=O)c2ccccc2)CC1)NCc1ccccc1Cl`, 4.81%.

Consider `CCNc1nc(NCC)nc(N/N=C/c2ccc([N+](=O)[O-])o2)n1`, for which the “hERG current change (%, negative = inhibition) at 1uM” value was -30.2%. Under `Cc1ccc(C)c(NC(=O)CSc2nnc(-c3ccccc3C)o2)c1` stands 10.7%; under `COc1ccccc1C1CC(c2ccc(C)cc2)Nc2ncnn21` (stereo not drawn), 3.82%. In the case of `Cc1cc(/C=C2\SC(=S)NC2=O)c(C)n1C1CC1` it was 4.92%. In the case of `CCOC(=O)c1nn(-c2ccc(F)cc2)cc1O` it was 11.4%; in that of `COc1ccc(-c2cc(C(=O)Nc3c(C)n(C)n(-c4ccccc4)c3=O)c3ccccc3n2)cc1`, 22.5%; in that of `Cc1c(C)c(C)c(CN2CCCC2)c(C)c1C`, 0.687%. Turning to `Fc1ccc(N/N=C2/CC(c3ccccc3)Oc3ccccc32)c(F)c1` (stereo not drawn), the “hERG current change (%, negative = inhibition) at 1uM” value is reported as 11.6%. In the case of `O=C(c1ccccc1)C1C(c2ccccc2)C1[N+](=O)[O-]` (stereo not drawn) it was 6.68%.

For `COc1ccc(N(C(=O)c2snc(C(N)=O)c2N)C(C(=O)NCc2ccc(F)cc2)c2ccc(C)o2)c(OC)c1` (stereo not drawn), the “hERG current change (%, negative = inhibition) at 1uM” value was 10.8%.

Regarding `CSc1cccc(NC(=O)c2ccccn2)c1`, the “hERG current change (%, negative = inhibition) at 1uM” value came out at 16.5%. As for `O=C(COc1ccc(Br)cc1)NNC(=O)c1ccc(-n2cncn2)c([N+](=O)[O-])c1`, the “hERG current change (%, negative = inhibition) at 1uM” value stood at 5.16%.

Regarding `COc1ccc(NC(=O)C(c2ccc(Cl)cc2)C(C)C)cn1` (stereo not drawn), the “hERG current change (%, negative = inhibition) at 1uM” value was 3.23%.

As to `CC(=O)c1ccc(S(=O)c2ccccc2)cc1` (stereo not drawn), the “hERG current change (%, negative = inhibition) at 1uM” value came out at 6.16%. Under `COc1cccc(C(=O)COC(=O)CCC(=O)c2ccccc2)c1` stands 12.9%. As to `CCc1nc2ccccc2c(=O)n1NC(=O)c1c(O)c2ccccc2n(CC)c1=O`, the “hERG current change (%, negative = inhibition) at 1uM” value was determined as 7.06%. In the case of `CCOC(=O)C1CCCN(C(=O)c2cn(-c3ccccc3)nc2-c2cccnc2)C1` (stereo not drawn) it was 13.6%; in that of `Cc1cc(C(=O)NCC(c2cccs2)N2CCOCC2)ccc1[N+](=O)[O-]` (stereo not drawn), 8.36%; in that of `CC(C)(C)c1cc2nc3c(c(=O)n2[nH]1)CN(Cc1ccccc1)C3=O`, 11.4%.

On to `Brc1c(-c2ccc3c(c2)OCO3)nc2ncccn12`, for which the “hERG current change (%, negative = inhibition) at 1uM” value is 10.5%. In the case of `COC(=O)c1ccc(C2OCC(C)(C)CO2)cc1` it was 1.61%; in that of `COC(=O)c1c(N=CN(C)C)c(C#N)c2n1CCCC2`, -4.91%. In the case of `COc1cc(C(C)=O)ccc1OCC(O)CN(CCO)Cc1ccccc1` (stereo not drawn) it was 2.46%. On to `COC(=O)c1c(C)n(Cc2ccccc2)c2ccc(O)cc12`, for which the “hERG current change (%, negative = inhibition) at 1uM” value is 15.9%. As for `Cc1cc(C)c(S(=O)(=O)Nc2ccc(-c3cn4ccccc4n3)cc2)c(C)c1`, the “hERG current change (%, negative = inhibition) at 1uM” value is 8.41%. With `CS(=O)(=O)N1CCCC(C(=O)Nc2c(F)cccc2F)C1` (stereo not drawn), the “hERG current change (%, negative = inhibition) at 1uM” value was found to be 16%. In the case of `Cc1cc(C(C)(C)C)oc1C(=O)N(CC(=O)NC1CCCC1)Cc1ccccc1Cl` it was 9.01%; in that of `O=C1NC(c2cccnc2)Nc2sc3c(c21)CCCC3` (stereo not drawn), 12.7%. As to `O=C(Cn1cnc2sc(-c3ccccc3)cc2c1=O)NCCc1ccccc1`, the “hERG current change (%, negative = inhibition) at 1uM” value amounted to 7.55%. As to `COc1ccc(NC(=O)COC(C)=O)cc1Cl`, the “hERG current change (%, negative = inhibition) at 1uM” value is recorded as 9.3%.

On to `COCC(C)n1c(C)cc(C(=O)COc2ccc(C)nc2[N+](=O)[O-])c1C` (stereo not drawn), for which the “hERG current change (%, negative = inhibition) at 1uM” value worked out at 21.3%. Under `N#Cc1c(-c2cccs2)cc(-c2cccnc2)nc1N` stands 8.57%. In the case of `O=C(CCS(=O)(=O)c1cc2c(cc1Cl)NC(=O)CO2)NCc1ccccc1` it was 8.93%; in that of `CNc1nc(-c2ccccc2)cc(C)c1S(C)(=O)=O`, -6.46%.

`CC(=O)Nc1ccc(NC(=O)C(C)Oc2ccccc2F)cc1` (stereo not drawn): the “hERG current change (%, negative = inhibition) at 1uM” value turned out to be 13.3%. Under `Clc1cccc(CSc2nnc(-c3c[nH]c4ccccc34)o2)c1` stands 12.2%; under `O=C(CSc1ncn[nH]1)N1CCN(c2nnc(-c3ccccc3)c3ccccc23)CC1`, 4.45%. Take `COc1ccc(-c2oc3ncn(Cc4ccco4)c(=N)c3c2-c2ccc(OC)cc2)cc1`: the “hERG current change (%, negative = inhibition) at 1uM” value was determined as 3.3%. Take `CCN(CC)CCNc1nc(-n2nc(C)cc2C)nc2sc3c(c12)CC(C)(C)OC3`: the “hERG current change (%, negative = inhibition) at 1uM” value is recorded as -13.2%. Under `Cc1ccc(C(=O)Nc2nnn(C)n2)cc1` stands 10.7%; under `Cc1ccc(NS(=O)(=O)c2ccc3c(c2)NC(=O)CO3)cc1Cl`, 15.5%.

`O=C(/C=N/NC(=O)c1ccc(Cl)cc1Cl)c1ccccc1`: the “hERG current change (%, negative = inhibition) at 1uM” value came to 6.83%. Under `Nn1c(SCC(=O)Nc2ccccc2)nnc(Cc2ccccc2)c1=O` stands 7.54%; under `Cc1cc(Cl)cc(Cl)c1OCCN1CCCC1`, -5.68%; under `CC(NCc1ccccc1OC1CCCC1)c1ccccc1.Cl` (stereo not drawn), 4.55%. Turning to `CC(C)Oc1ccc(/C=N/NC(=O)c2ccc(N(Cc3ccccc3)S(C)(=O)=O)cc2)cc1`, the “hERG current change (%, negative = inhibition) at 1uM” value stood at 8.24%. Under `CC(=O)OC1CC(n2ccc(NC(=O)c3ccccc3)nc2=O)OC1CO` (stereo not drawn) stands 7.03%; under `Cc1ccc(NC(=S)N(CCCN2CCOCC2)Cc2ccco2)cc1Cl`, 5.44%; under `COc1ccc(C(C)NC(=O)Cc2cccs2)cc1OC` (stereo not drawn), 9.88%. Regarding `COc1ccc(CCNC(=O)c2cc3c(C)nccc3[nH]c2=O)cc1OC`, the “hERG current change (%, negative = inhibition) at 1uM” value worked out at 1.74%. In the case of `Cc1[nH]c2ccccc2c1SCc1nnc(SCc2ccc(Cl)cc2)n1C`, the “hERG current change (%, negative = inhibition) at 1uM” value was 9.11%.

On to `COc1ccc(C2NCCC3(O)CCCCC23)c(OC)c1OC` (stereo not drawn), for which the “hERG current change (%, negative = inhibition) at 1uM” value is -11.3%. Turning to `O=C(Cn1nnc(-c2ccccc2Cl)n1)N/N=C/c1ccc(-c2cccc(Cl)c2)o1`, the “hERG current change (%, negative = inhibition) at 1uM” value was 9.72%. Turning to `Cc1cc(-c2ccc(C)c(S(=O)(=O)NCC3CCN(Cc4ccccc4F)CC3)c2)on1`, the “hERG current change (%, negative = inhibition) at 1uM” value is 6.98%. As to `O=C(c1ccc(Cl)cc1[N+](=O)[O-])N1CCN(c2ccccn2)CC1`, the “hERG current change (%, negative = inhibition) at 1uM” value was -5.36%.

Regarding `COc1ccc(Cl)cc1Nc1nc(-c2sc(NC(=O)c3ccccc3)nc2C)cs1`, the “hERG current change (%, negative = inhibition) at 1uM” value worked out at 13.1%. Under `O=C(Nc1cccc(Cl)c1N1CCCC1)c1ccco1` stands 16.2%. Take `O=C(O)c1ccc(NCc2cccc(Br)c2)cc1`: the “hERG current change (%, negative = inhibition) at 1uM” value is given as 12.8%. In the case of `COC(=O)CSc1nnc(-c2ccc(OC)c(OC)c2)o1` it was 6.76%.
